Experimental data as given in article PMC4336329 (PLoS ONE, 2015).
Hit rate of the full screen: of about 310,000 compounds, about 14,000 (4.5%) showed an effect of 50% or more. The effect is printed as a negative number. This is one part of the list.

Biological target: human ether-à-go-go-related gene (hERG) potassium channel (human, UniProt Q12809)
Test: primary screen, population patch clamp on CHO cells stably expressing hERG
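Further: peak tail current of the secondary pulse compared with the same well before compound.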

human ether-à-go-go-related gene (hERG) potassium channel, sequence (Q12809 whole entry, looked up): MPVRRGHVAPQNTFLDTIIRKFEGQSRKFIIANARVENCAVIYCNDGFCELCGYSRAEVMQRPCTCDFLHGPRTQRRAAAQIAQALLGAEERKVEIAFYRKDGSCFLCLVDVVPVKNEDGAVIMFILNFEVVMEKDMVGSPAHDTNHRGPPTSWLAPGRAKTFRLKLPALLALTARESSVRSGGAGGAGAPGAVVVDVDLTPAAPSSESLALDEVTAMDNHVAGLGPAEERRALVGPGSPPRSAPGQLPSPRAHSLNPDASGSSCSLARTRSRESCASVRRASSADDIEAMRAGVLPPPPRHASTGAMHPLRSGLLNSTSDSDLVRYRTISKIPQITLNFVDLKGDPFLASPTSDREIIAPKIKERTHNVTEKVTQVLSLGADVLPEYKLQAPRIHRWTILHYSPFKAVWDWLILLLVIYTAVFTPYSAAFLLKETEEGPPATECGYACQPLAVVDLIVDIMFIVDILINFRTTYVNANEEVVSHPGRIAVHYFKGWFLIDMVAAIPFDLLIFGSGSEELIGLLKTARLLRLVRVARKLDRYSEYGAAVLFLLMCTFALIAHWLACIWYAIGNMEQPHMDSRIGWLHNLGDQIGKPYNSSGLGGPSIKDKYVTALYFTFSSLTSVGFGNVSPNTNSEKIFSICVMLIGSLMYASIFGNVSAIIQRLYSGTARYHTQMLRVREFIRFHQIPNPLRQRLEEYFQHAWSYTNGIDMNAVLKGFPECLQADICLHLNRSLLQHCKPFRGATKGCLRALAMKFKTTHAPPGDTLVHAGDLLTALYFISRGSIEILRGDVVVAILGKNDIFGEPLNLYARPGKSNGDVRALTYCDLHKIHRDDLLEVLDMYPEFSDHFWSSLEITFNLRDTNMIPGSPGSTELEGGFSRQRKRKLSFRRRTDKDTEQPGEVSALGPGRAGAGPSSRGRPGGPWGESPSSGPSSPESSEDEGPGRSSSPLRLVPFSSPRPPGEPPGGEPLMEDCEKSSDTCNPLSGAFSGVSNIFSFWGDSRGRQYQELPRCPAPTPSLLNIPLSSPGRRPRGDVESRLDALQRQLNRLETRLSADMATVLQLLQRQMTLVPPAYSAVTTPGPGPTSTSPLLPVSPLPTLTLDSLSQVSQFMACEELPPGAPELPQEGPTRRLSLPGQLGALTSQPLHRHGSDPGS

Row | SMILES | hERG current change (%, negative = inhibition) at 10uM [%]
1 | CCN(CC)C(=O)CN1C(=O)C2(NC(=O)c3ccccc3N2)c2ccccc21 (stereo not shown) | 22.3
2 | Cc1ccc(NC(=O)c2ccc(NCCN)c([N+](=O)[O-])c2)cc1 | 0.857
3 | CC(=O)c1cccc(NC(=O)NC(C)C2CCCO2)c1 (stereo not shown) | 12.7
4 | CC(=O)Nc1cc2c(cc1NC(=O)c1cnccn1)OCCO2 | 26
5 | CC1(C(=O)NCc2cc(F)cc(C(F)(F)F)c2)C=CC2(CCCCC2)N1C(=O)c1ccccc1 (stereo not shown) | -1.31
6 | CSc1nc(-c2ccc(C)cc2)[nH]c1S(=O)(=O)c1ccccc1 | 1.2
7 | C1CNCCN1.COc1cc(C(O)CO)ccc1O (stereo not shown) | 3.97
8 | CCOC(=O)C(=N/O)/C(C)=N/NC(C)=O | 20.9
9 | O=S(=O)(Nc1ccccc1)c1cccc2nsnc12 | 16.5
10 | Cc1ccc(S(=O)(=O)NNC2=NCCCCC2)cc1 | 16
11 | CN(C)/C=C/C1=C([N+](=O)[O-])C(c2cccc([N+](=O)[O-])c2)NC(=O)N1 (stereo not shown) | -0.789
12 | O=C(/C=C/c1ccccc1)NC(=S)Nc1ccc(N2CCOCC2)cc1 | 13.7
13 | Cc1cc(C)nc(N2CCC(C(=O)NCc3ccco3)CC2)n1 | -1.73
14 | CC(=O)c1cccc(NC(=S)NC2CC2)c1 | 6.97
15 | COc1cccc(OCCn2c(C)c(/C=N/n3cnnc3)c3ccccc32)c1 | -7.66
16 | O=C(Nc1ccccc1)c1ccc(NCc2ccco2)c(S(=O)(=O)N2CCOCC2)c1 | -14.1
17 | CCOC(=O)C1=C(C)NC2=C(C(=O)c3ccccc32)C1c1cccc2ccccc12 (stereo not shown) | 18.1
18 | Cc1oc2c(cc(NS(=O)(=O)c3ccc(C(C)C)cc3)c3ccccc32)c1C(=O)O | 5.76
19 | Cc1ccc(C)c(S(=O)(=O)N2CCCCC2CCNC(=O)C(=O)NCc2ccccn2)c1 (stereo not shown) | -19.8
20 | CSc1ncc(C(=O)Nc2ccc(Cl)cc2)c(C)n1 | 4.13
21 | Cc1ccccc1NC(=O)CN1C(=O)N/C(=C\c2ccccc2OCc2ccc(C(=O)O)cc2)C1=O | 23.2
22 | CCOc1ncccc1C(=O)Nc1nnc(C)s1 | 28.2

Row | SMILES | hERG current change (%, negative = inhibition) at 10uM [%]
23 | CCOC(=O)c1c(-c2ccccc2)csc1NC(=O)c1ccc(S(=O)(=O)N2CCOCC2)cc1 | 9.29
24 | Cc1cc(S(=O)(=O)N2CCCCC2CCNC(=O)C(=O)NC2CC2)ccc1F (stereo not shown) | -32.6
25 | O=Cc1cc(Br)c(OC(=O)N2CCOCC2)c(Br)c1 | -17.9
26 | COc1cc2c(cc1OC)CN(C(=O)c1oc3ccccc3c1C)CC2 | -20.8
27 | CCOC(=O)N1CCN(C(=O)CSC2=NS(=O)(=O)c3ccccc3N2)CC1 | -8.55
28 | O=C(Cc1cccc(NC(=O)C2CCN(C(=O)C3CC3)CC2)c1)Nc1cccc(C(=O)N2CCCC2)c1 | -1.92
29 | C/C(=N\NC(=O)c1nnn(-c2nonc2N)c1-c1cccs1)c1cccnc1 | 20.1
30 | COc1ccc(NC(=O)Cn2nnc3sc4c(c3c2=O)CC(C)(C)OC4)cc1 | 1.18
31 | COc1ccc(S(=O)(=O)Nc2ccccc2OC)cc1NC(=O)CC1CC2CCC1C2 (stereo not shown) | -15.4
32 | Cc1cc(C)n2nc(SC(C)C(=O)NCc3ccco3)nc2n1 (stereo not shown) | 1.81
33 | CCOC(=O)c1nc2c(=O)n(C)c(=O)n(C)c2n(C)c1=O | 15
34 | Cl.N=c1sccn1CC(=O)Nc1ccccc1Sc1ccccc1 | -31.1
35 | COc1ccc(Cl)cc1NC(=S)NN1CCOCC1 | 33.6
36 | CCN(CC)S(=O)(=O)c1ccc(NC(=O)COC(=O)CCc2cc(OC)c(OC)c(OC)c2)cc1 | -0.631
37 | C=CCN1C(=O)/C(=C/c2ccc(O)cc2)S/C1=N/c1nccs1 | -12.6
38 | Brc1ccc(N/N=C(/N=Nc2nn[nH]n2)c2ccccc2)cc1 | 37.8
39 | OCCN=C1CCCc2c1[nH]c1ccc(Cl)cc21 | -18
40 | Cc1ncc(N=Nc2ccccc2)c(-c2ccccc2)n1 | 2.63
41 | CCN(CC)CCn1c2c(c(SCC(=O)Nc3ccc(C)c(F)c3)nc1=O)CCCC2 | -70.1
42 | COc1ccc(-c2cc(NCCc3ccncc3)n3ncnc3n2)cc1 | -55.8
43 | Cc1ccc(CC(CC(=O)O)C(=O)NCc2ccccc2)cc1 (stereo not shown) | 23.3
44 | Cc1ccc(S(=O)(=O)N2CCOCC2)cc1NC(=O)CN1CCC(Cc2ccccc2)CC1.O=C(O)C(=O)O | -12.8

Row | SMILES | hERG current change (%, negative = inhibition) at 10uM [%]
45 | CC(C)NC(=O)C1CCN(C2CCN(C(=O)Cc3ccc4c(c3)OCO4)CC2)CC1 | -3.18
46 | CCOC(=O)Cc1csc(NC(=O)c2ccc(Br)o2)n1 | 0.115
47 | CCOC(=O)c1cc(CN2CCOCC2)oc1-c1ccccc1 | -20.3
48 | O=C(NCc1ccco1)C1CC(O)CN1C(=O)Nc1ccccc1 (stereo not shown) | 29.8
49 | COc1ccc(NC(=O)Cn2nnc(C(=O)NCc3ccc(C)cc3)c2N)cc1OC | 17.3
50 | Cc1ccc(OCCC(=O)OCC(=O)NCCc2ccccc2)cc1 | 51.4
51 | Cc1ccc(OCc2nnc(SC(C)C(=O)O)n2-c2ccccc2)cc1 (stereo not shown) | 24.7
52 | Cc1cc(Oc2ccc(Cl)cc2)nc(-c2ccccc2O)n1 | 8.28
53 | O=C(O)C1Nc2ccc(OC(F)(F)F)cc2C2C=CCC12 (stereo not shown) | 13.5
54 | COc1ccc(C(=O)NCC(C)(C)CNC(=O)c2ccc(OC)c(OC)c2)cc1OC | -9.01
55 | COc1ccc(S(=O)(=O)N(C)CC(=O)NC2CCCCC2)cc1Cl | -8.01
56 | COc1cccc2c1OCC(C(=O)NCc1ccc(Cl)cc1Cl)=C2 | 7.52
57 | NNc1nc2c(Cl)c(Cl)ccc2s1 | 19.6
58 | Cc1nc2ccc(NC(=O)c3ccc(S(=O)(=O)N(C)c4ccccc4)cc3)cc2s1 | -3.21
59 | COc1ccccc1CNC(=O)C1CCCN(S(=O)(=O)c2ccc3c(c2)CC(C)N3C(C)=O)C1 (stereo not shown) | -24.5
60 | N#Cc1c(N)n(-c2ccc(N)cc2)c2nc3ccccc3nc12 | 12.1
61 | Cc1ccc(C(=O)NCCc2ccccc2)cc1 | -1.2
62 | COc1ccc(C)cc1NC(=O)C1CCN(C(=O)C2CC(=O)N(c3ccc(C)cc3)C2)CC1 (stereo not shown) | -23.1
63 | O=C1NN(c2ccc(F)cc2)C(=O)/C1=C\C=C\c1ccco1 | 11
64 | COc1ccc(C2=CC(=O)C[C@H](c3ccc(OC)c(OC)c3)C2)cn1 | -7.46
65 | CCn1c(SCC(=O)c2ccc(Br)cc2)nnc1C(C)NC(=O)Cc1ccc(OC)cc1 (stereo not shown) | -15.6
66 | O=C(NCc1cccs1)N[C@@H](Cc1ccccc1)C(=O)O | -1.53

Row | SMILES | hERG current change (%, negative = inhibition) at 10uM [%]
67 | NC(=O)c1oc2ccccc2c1NC(=O)c1ccc(F)cc1 | 10.9
68 | O=C(O)c1ccccc1S(=O)CCO (stereo not shown) | 7.26
69 | Cc1nc(-c2cccc(N)c2)cs1 | 5.26
70 | O=C(Nc1ccccn1)c1cccc(S(=O)(=O)N2CCCCC2)c1 | -26.9
71 | CCCN(CC(=O)Nc1ccccc1C)C(=O)c1ccc(-c2ccc([N+](=O)[O-])cc2)o1 | -35.7
72 | CCc1ccnc(NC(=O)NS(=O)(=O)c2ccc(C)cc2)c1 | 15.9
73 | O=C(COC(=O)CCC(NC(=O)OCc1ccccc1)C(=O)OCC(=O)Nc1ccccc1)Nc1ccccc1 (stereo not shown) | -17.4
74 | O=C(Cc1ccc(F)cc1)NCCS(=O)(=O)N1CCN(c2ccccc2)CC1 | 5.42
75 | CCC(C)CCN1CCN=C1N(C)C (stereo not shown) | 15.8
76 | CC(=O)Nc1ccc(-c2cn3c(n2)SCC3)cc1 | 25.8
77 | COc1cc(/C=N/NC(=O)c2cccnc2)cc(Br)c1O | 3.44
78 | BrC(=C\c1ccccc1)/C=N/Nc1nc2ccccc2[nH]1 | 8.75
79 | CCCCCC(=O)NNC1=NCC(Cc2cccc(Cl)c2)S1 (stereo not shown) | -1.5
80 | O=C(CN1CCN(Cc2ccc3c(c2)OCO3)CC1)Nc1ccc(N2CCOCC2)cc1 | -6.54
81 | CC(=O)C1=C(C)NC(=S)NC1c1cccc([N+](=O)[O-])c1 (stereo not shown) | -1.53
82 | CCN(CC(=O)Nc1c(F)cccc1F)C(=O)CSc1nc(C)cc(C)n1 | 17.2
83 | COc1ccc(NC2c3ccccc3C(=O)N2Cc2ccc3c(c2)OCO3)cc1 (stereo not shown) | -17.7
84 | O=c1c2c(nc3nc(NCc4cccc5ccccc45)[nH]n13)CCC2 | 46.7
85 | CC(=O)N1CCOc2cc(S(=O)(=O)NCc3ccc(F)cc3)c(C)cc21 | -16.6
86 | COC(=O)c1c(NC(=O)/C=C/C(=O)O)sc(C)c1-c1ccc(C)c(C)c1 | -16.4
87 | O=S(=O)(c1cc(Cl)cc(Cl)c1)N1CCCC1c1nc2ccccc2s1 (stereo not shown) | 8.03
88 | O=C(Cn1ncc2ccccc21)N1CCN(c2cccc(C(F)(F)F)c2)CC1 | -6.25
